Assay results published in publication PMC4336329 (PLoS ONE, 2015).
Hit rate of the full screen: of about 310,000 compounds, about 14,000 (4.5%) showed an effect of 50% or more. Effects have a minus sign here. The list shows a part of the results.

Each compound was assayed against human ether-à-go-go-related gene (hERG) potassium channel (human, UniProt Q12809) (assay: primary screen, population patch clamp on CHO cells stably expressing hERG).
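Also: peak tail current of the secondary pulse compared with the same well before compound.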

human ether-à-go-go-related gene (hERG) potassium channel, sequence (Q12809 whole entry, looked up): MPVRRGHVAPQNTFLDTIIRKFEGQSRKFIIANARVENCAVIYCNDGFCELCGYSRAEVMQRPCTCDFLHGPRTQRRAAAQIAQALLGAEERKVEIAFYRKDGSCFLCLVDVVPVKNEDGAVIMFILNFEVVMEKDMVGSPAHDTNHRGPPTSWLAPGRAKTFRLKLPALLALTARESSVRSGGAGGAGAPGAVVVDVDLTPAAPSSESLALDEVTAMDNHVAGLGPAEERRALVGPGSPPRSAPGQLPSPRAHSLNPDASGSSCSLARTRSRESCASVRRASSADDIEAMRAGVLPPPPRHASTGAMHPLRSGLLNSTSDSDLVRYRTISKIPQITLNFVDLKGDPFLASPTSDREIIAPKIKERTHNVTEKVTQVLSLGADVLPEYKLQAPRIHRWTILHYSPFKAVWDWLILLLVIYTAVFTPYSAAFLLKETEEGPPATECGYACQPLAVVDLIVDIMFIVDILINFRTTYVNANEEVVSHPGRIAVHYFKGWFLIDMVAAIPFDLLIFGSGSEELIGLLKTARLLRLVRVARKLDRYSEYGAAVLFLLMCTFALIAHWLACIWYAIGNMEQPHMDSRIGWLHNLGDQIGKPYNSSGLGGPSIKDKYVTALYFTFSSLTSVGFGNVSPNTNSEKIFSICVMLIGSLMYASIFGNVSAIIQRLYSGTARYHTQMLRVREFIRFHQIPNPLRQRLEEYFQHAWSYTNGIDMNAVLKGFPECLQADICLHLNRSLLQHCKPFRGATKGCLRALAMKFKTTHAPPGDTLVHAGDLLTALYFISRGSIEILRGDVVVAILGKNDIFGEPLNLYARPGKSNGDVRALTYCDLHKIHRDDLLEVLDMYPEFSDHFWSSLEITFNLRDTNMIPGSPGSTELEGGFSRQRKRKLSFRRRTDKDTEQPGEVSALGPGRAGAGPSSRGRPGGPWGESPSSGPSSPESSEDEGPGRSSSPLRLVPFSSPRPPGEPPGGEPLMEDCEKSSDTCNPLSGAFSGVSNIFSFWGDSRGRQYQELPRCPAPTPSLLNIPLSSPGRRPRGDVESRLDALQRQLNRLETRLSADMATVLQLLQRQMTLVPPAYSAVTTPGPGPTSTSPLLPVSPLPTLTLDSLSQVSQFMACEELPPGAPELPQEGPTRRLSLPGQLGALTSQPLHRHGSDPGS

First: COC(=O)c1sc2nc(SCc3cccc(Cl)c3)n(N)c(=O)c2c1C
Second: COC(=O)C1=C(C)NC2=C(C(=O)CC(C)(C)C2)C1c1cccc(C)n1 (stereo not shown)
The “hERG current change (%, negative = inhibition) at 10uM” value of the first is lower: 1.39% for the first, 8.61% for the second.

First: Cc1ccc(N2CC(C(=O)NCc3ccccn3)CC2=O)cc1 (stereo not shown)
Second: COc1cccc(C(=O)NC(=S)Nc2ccccc2N2CCCC2)c1
The “hERG current change (%, negative = inhibition) at 10uM” value of the first is lower: 5.36% for the first, 12.7% for the second.

Going from COC(=O)CC1=C(C(=O)OC)C(c2cccs2)C(C#N)=C(N)O1 (stereo not shown) to COc1ccccc1C(=O)COC(=O)Cn1c(C)csc1=O, the “hERG current change (%, negative = inhibition) at 10uM” value falls from 1.57% to -13%.

Going from Cc1ccc(NC(=O)c2ccc(S(=O)(=O)N3CCC(C)CC3)cc2)nc1 to O=C(Nc1ccc(Cl)c(S(=O)(=O)N2CCCCC2)c1)c1cccnc1, the “hERG current change (%, negative = inhibition) at 10uM” value falls from -3.08% to -21.5%.

Compared with CCSc1nnc(NC(=O)c2nc(S(=O)(=O)Cc3ccc(F)cc3)ncc2Cl)s1, COc1ccc2[nH]c(C(=O)O)c(NS(=O)(=O)c3ccc(F)cc3)c2c1 is higher in “hERG current change (%, negative = inhibition) at 10uM” value: 1.9% for the first, 13.2% for the second.

First: COc1ccc(/C=C/C(=O)NCCn2c(C)cc3ccccc32)cc1OC
Second: Cc1cccc(CSc2nnc(Cn3c(=O)sc4ccccc43)n2C)c1
The “hERG current change (%, negative = inhibition) at 10uM” value of the first is higher: -27.5% for the first, -37.9% for the second.

First: Cc1ccc(NS(=O)(=O)Cc2ccccc2)cc1Cl
Second: Cc1noc(C)c1S(=O)(=O)Nc1ccccc1Cl
The “hERG current change (%, negative = inhibition) at 10uM” value of the first is lower: 8.69% for the first, 13.5% for the second.

First: C=CCCC(=O)Nc1nc(C)c(-c2csc(Nc3ccccc3OC)n2)s1
Second: COc1ccccc1/C=N/NC(=O)c1nnn(-c2nonc2N)c1CSC1=NCCS1
The “hERG current change (%, negative = inhibition) at 10uM” value of the first is higher: 3.6% for the first, -3.01% for the second.

First: CCN1C(=O)[C@H]2[C@H]3[C@H](O)[C@H](O)C/C(=N\OC[C@@H](C)[C@H](OCc4ccccc4)C(C)C)[C@@H]3CC[C@H]2C1=O
Second: CCN1C(=O)[C@H]2[C@@H](c3ccc(OC)cc3)N3C(=O)CN(Cc4ccccc4)C(=O)[C@@]3(C)[C@H]2C1=O
The “hERG current change (%, negative = inhibition) at 10uM” value of the first is lower: 3.99% for the first, 18.6% for the second.

First: Cc1ccccc1CN(c1ccc(C(=O)NCCC2=CCCCC2)cc1)S(C)(=O)=O
Second: CC(=O)c1ccc(S(=O)(=O)NCCc2cn3ccc(C)cc3n2)cc1
The “hERG current change (%, negative = inhibition) at 10uM” value of the first is higher: -12% for the first, -29.9% for the second.

Compared with Cc1ccc(NC(=S)N(Cc2cccs2)Cc2cc3cc(C)cc(C)c3[nH]c2=O)cc1, COc1ccc(NC(=O)c2cc(-c3cccs3)on2)cc1 is lower in “hERG current change (%, negative = inhibition) at 10uM” value: 7.79% for the first, 5.59% for the second.

Going from O=C(N/N=C/c1ccccc1F)c1cc2c(ccc3ccccc32)o1 to O=C1CC(SC(=NCc2ccc3c(c2)OCO3)Nc2ccccc2)C(=O)N1c1ccccc1 (stereo not shown), the “hERG current change (%, negative = inhibition) at 10uM” value rises from -2.75% to 14.6%.

Compared with CCO[C@@H]1OC(C(=O)NCc2nc3ccccc3[nH]2)=C[C@H](c2csc3ccccc23)[C@H]1CCCO, CCOc1ccc(CNC(=O)CCCN2C(=O)C(c3ccccc3)Oc3cccnc32)cc1 (stereo not shown) is higher in “hERG current change (%, negative = inhibition) at 10uM” value: -34.1% for the first, 15.7% for the second.

Going from O=C1CC2(CCN(C(=O)c3c(F)cccc3Cl)CC2)Oc2ccccc21 to Cc1onc(C(=O)N2CCC(C(N)=O)CC2)c1-c1ccccc1Cl, the “hERG current change (%, negative = inhibition) at 10uM” value rises from -41.2% to 17.6%.

First: Cc1nc2ccccn2c1C(=O)NNC(=S)Nc1ccccc1
Second: S=C(NCC(c1ccco1)N1CCCC1)Nc1ccccc1 (stereo not shown)
The “hERG current change (%, negative = inhibition) at 10uM” value of the first is higher: 10.7% for the first, -28.9% for the second.

Going from CCCCc1ccc(NC(=S)NCc2cccnc2)cc1 to CCN(CC)c1ccc(CNc2ccc(Br)cn2)cc1, the “hERG current change (%, negative = inhibition) at 10uM” value rises from -14.8% to 13.1%.

First: NC(=O)CC(NC(=O)Cc1cccc2ccccc12)c1ccc(NCCN2CCCC2)c([N+](=O)[O-])c1 (stereo not shown)
Second: O=C(Cc1ccc(Cl)cc1)NCC(=O)N1CCN(c2ccccc2)CC1
The “hERG current change (%, negative = inhibition) at 10uM” value of the first is higher: -2.9% for the first, -19.6% for the second.

Compared with CC(=O)NS(=O)(=O)c1ccc(NC(=O)CCC2CCCC2)cc1, CC(=O)Nc1ccc(/C=C(\C#N)C(=O)NC2CCCCC2C)cc1 (stereo not shown) is lower in “hERG current change (%, negative = inhibition) at 10uM” value: -0.0873% for the first, -29.8% for the second.

First: CCSC(=O)NC1CCCCC1
Second: O=C(CCc1nc(-c2ccccc2)no1)NC1CCCCCC1
The “hERG current change (%, negative = inhibition) at 10uM” value of the first is higher: 10.1% for the first, 1.28% for the second.

Going from O=C1/C(=C\c2ccncc2)CCc2ccccc21 to Cc1nn2c(-n3ccnc3)c3c(nc2c1-c1ccccc1)CCC3, the “hERG current change (%, negative = inhibition) at 10uM” value rises from -26.4% to -16%.

First: CCOP(=O)(OCC)C(C#N)=C1SCN(c2ccc(Cl)cc2)CS1
Second: O=C(Nc1ccc(N2CCN(C(=O)c3ccc(Cl)cc3)CC2)cc1)c1cccs1
The “hERG current change (%, negative = inhibition) at 10uM” value of the first is higher: 12.6% for the first, -7.89% for the second.

Going from CCOC(=S)SCc1cn2ccccc2n1 to CCOC(=O)C(Sc1ncn[nH]1)c1ccccc1 (stereo not shown), the “hERG current change (%, negative = inhibition) at 10uM” value falls from 5.57% to -3.76%.

Compared with CN(Cc1ccc2c(c1)OCCO2)C(=O)CN1C(=O)NC2(CCCCC2)C1=O, CN(C)C(CNC(=O)CN1C(=O)NC2(CCCC2)C1=O)c1ccccc1 (stereo not shown) is lower in “hERG current change (%, negative = inhibition) at 10uM” value: 9.15% for the first, 0.638% for the second.

Compared with CCN1CCSc2ccc(C(=O)NCc3cc(Br)ccc3OC)cc21, CCOc1ccc(C(C)=O)cc1Cn1nc(C(=O)O)c2ccccc2c1=O is lower in “hERG current change (%, negative = inhibition) at 10uM” value: -4.21% for the first, -8.26% for the second.

Compared with O=C(NNC(=O)c1ccc(O)cc1O)c1ccc(Cl)cc1, CC(=O)c1cccc(NC(=S)NC(=O)c2ccc(C)cc2Cl)c1 is higher in “hERG current change (%, negative = inhibition) at 10uM” value: -1.82% for the first, 9.94% for the second.

Going from CC1CCN(C(c2ccc(N(C)C)cc2)c2nnnn2C(C)(C)C)CC1 (stereo not shown) to CC(C)CCOP(=O)(c1ccc(N(C)C)cc1)C(O)c1ccccn1 (stereo not shown), the “hERG current change (%, negative = inhibition) at 10uM” value rises from -7.17% to -3.97%.

Compared with COc1ccc(CN(C(=O)c2nsc(Cl)c2Cl)C(C(=O)NC2CCCCC2)c2ccc(OC)cc2)cc1 (stereo not shown), COc1ccc(C(C(=O)NC2CCCC2)N(CCO)C(=O)Cn2nnc(-c3ccc(C)o3)n2)cc1OC (stereo not shown) is higher in “hERG current change (%, negative = inhibition) at 10uM” value: -6.67% for the first, 3.26% for the second.

First: CCCCCOc1ccc(C2C(C(=O)c3ccc(C)o3)=C(O)C(=O)N2c2cc(C)on2)cc1 (stereo not shown)
Second: COc1ccc(C2CC(c3ccc4ccccc4c3OC(C)=O)=NN2C(C)=O)cc1 (stereo not shown)
The “hERG current change (%, negative = inhibition) at 10uM” value of the first is higher: 15.9% for the first, 10.2% for the second.

First: Cc1ccsc1C(=O)C1CCCN(CCO)C1 (stereo not shown)
Second: CCCc1cc(C(=O)N2CCCC(C(=O)c3cc(C)c(OC)c(C)c3)C2)n(C)n1 (stereo not shown)
The “hERG current change (%, negative = inhibition) at 10uM” value of the first is higher: 5.34% for the first, -41.3% for the second.

Compared with c1ccc(CCC2CCCCN2Cc2nc(-c3ccc4c(c3)OCO4)no2)nc1 (stereo not shown), O=C(NCc1ccc2c(c1)OCO2)C1CCCN(S(=O)(=O)c2cccc3nonc23)C1 (stereo not shown) is higher in “hERG current change (%, negative = inhibition) at 10uM” value: -55.7% for the first, -1.06% for the second.

Compared with CC(C)Cn1c(N)c(C(=O)CSc2nncs2)c(=O)n(C)c1=O, CCOC(=O)c1cc2c(=O)n3ccccc3nc2n(CCCOC)c1=NC(=O)C(C)(C)C is higher in “hERG current change (%, negative = inhibition) at 10uM” value: -12.9% for the first, -7.42% for the second.

Going from CC(C)Nc1nc(Oc2ccc(Cl)cc2)cc(C(F)(F)F)n1 to COc1ccc(-c2csc(NC(C)c3nc4cc(C(F)(F)F)ccc4n3CCOCCO)n2)cc1 (stereo not shown), the “hERG current change (%, negative = inhibition) at 10uM” value falls from -8.31% to -39.3%.

Compared with COc1cccc(CC(NC(C)=O)C(=O)NC2CCN(c3c(Cc4ccccc4)c(C)nc4ncnn34)CC2)c1 (stereo not shown), CCC1CCCCN1CCCNC(=O)CSc1nc2nc(C)c(Cc3ccccc3)c(C)n2n1 (stereo not shown) is lower in “hERG current change (%, negative = inhibition) at 10uM” value: -0.458% for the first, -34.2% for the second.

Going from O=C(Nc1ccc2c(c1)ncn2-c1ccccc1)c1ccco1 to Nc1nccc(-c2ccc(-n3cnc4ccccc43)cc2)n1, the “hERG current change (%, negative = inhibition) at 10uM” value falls from -4.23% to -25.3%.

Going from Cc1ccc(CNC(=O)CCCNS(=O)(=O)c2cccc3nonc23)cc1 to O=C(COc1ccccc1Cl)NCCCNC(=O)c1ccco1, the “hERG current change (%, negative = inhibition) at 10uM” value rises from -11.4% to 2.17%.

Going from COc1ccc(OCC(=O)Nc2ccc3c(c2)nc(CCN2CCOCC2)n3C)cc1 to COc1cc(NC(=O)c2ccccc2F)c(OC)cc1NC(=O)CN1CCOCC1.Cl, the “hERG current change (%, negative = inhibition) at 10uM” value rises from -41% to -13.1%.

Going from O=C(O)CCN1C(=O)c2ccncc2C1=O to O=C(CC1C(=O)NCCN1C(=O)c1ccc(F)cc1)OCc1ccccc1 (stereo not shown), the “hERG current change (%, negative = inhibition) at 10uM” value rises from -6.92% to 1.07%.

Compared with Cc1ccccc1S(=O)(=O)c1cc(C#N)c(=O)[nH]c1N, CN(C)/C=N/NC(=O)c1ccccc1Cl is higher in “hERG current change (%, negative = inhibition) at 10uM” value: 19% for the first, 23.8% for the second.

Compared with CC(OC(=O)CCC(=O)N1CCN(S(=O)(=O)c2ccc3ccccc3c2)CC1)C(=O)NC(N)=O (stereo not shown), O=C(Nc1cccc(S(=O)(=O)c2cccc(NC(=O)C3CC3)c2)c1)C1CC1 is higher in “hERG current change (%, negative = inhibition) at 10uM” value: -22.9% for the first, -6.06% for the second.

First: CCN(CC)C(=O)C1CCN(C(=O)c2oc3ccc(C)cc3c2C)CC1
Second: CCc1nc(C)ccc1OCC(=O)N(CC)CC.O.O=C(O)C(=O)O
The “hERG current change (%, negative = inhibition) at 10uM” value of the first is higher: -6.34% for the first, -30.9% for the second.

Compared with O=C(CSc1nc2[nH]ncc2c(=O)n1-c1ccccc1Br)NCc1ccccc1Cl, Cc1cccc([C@@H]2[C@@H]3C(=O)N(Cc4ccccc4)C(=O)[C@@H]3[C@]3(CC(C)C)C(=O)N(c4cccc(F)c4)C(=O)N23)c1 is higher in “hERG current change (%, negative = inhibition) at 10uM” value: -27.8% for the first, 6.63% for the second.

Going from O=C(CC(Sc1ccc(Br)cc1)C(=O)O)c1ccc(F)cc1 (stereo not shown) to CCOC(=O)C(C(C)=O)c1c(Br)c(O)c(O)c2c(C(=O)c3ccc(C)cc3)coc12 (stereo not shown), the “hERG current change (%, negative = inhibition) at 10uM” value falls from 17.1% to 1.77%.

For CCOc1ccc2nc(-c3cc(NC(C)=O)ccc3O)sc2c1, the “hERG current change (%, negative = inhibition) at 10uM” value was 25%.
